# Data as given in the BET-seq Pho4 binding data (Le et al. 2018).
# The list shows a part of the results. Values were computed here from the reads of four pooled replicates and scatter widely.
# Molecular target: T1, Pho4 (S. cerevisiae) (UniProt P07270)
# T1 sequence: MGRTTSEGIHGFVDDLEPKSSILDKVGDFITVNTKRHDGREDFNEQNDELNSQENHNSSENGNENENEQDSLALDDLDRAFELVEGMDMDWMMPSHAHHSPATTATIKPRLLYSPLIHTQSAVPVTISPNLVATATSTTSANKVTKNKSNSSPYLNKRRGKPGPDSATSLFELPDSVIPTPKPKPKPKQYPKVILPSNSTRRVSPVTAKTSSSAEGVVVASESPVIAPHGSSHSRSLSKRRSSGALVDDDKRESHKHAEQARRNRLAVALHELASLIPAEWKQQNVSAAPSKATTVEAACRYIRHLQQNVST
# Assay: relative binding free energy (BET-seq); higher = weaker binding
# Details: reference: library average
row,Sequence,relative binding free energy [kcal/mol]
1,AGGGACACGTGTATGG,0.14
2,TTTTACACGTGCAATG,0.15
3,AGAGTCACGTGTGTTT,0.23
4,AGCCTCACGTGAGGTG,0.37
5,TTTTTCACGTGATGTG,0.35
6,TTGTTCACGTGAAGTA,0.47
7,AAATACACGTGGGGAG,-0.05
8,TTGGTCACGTGGGCAT,0.11
9,CAATTCACGTGGTTTA,0.24
10,CTGTTCACGTGGATTT,0.36
11,GGTTACACGTGAACGG,0.31
12,ATGTGCACGTGTAATA,-0.11
13,GCTTTCACGTGTGAGT,0.34
14,TGAGACACGTGGTGGT,0.01
15,CGGTGCACGTGTGATG,-0.04
16,AATAACACGTGATGGG,0.2
17,TGAATCACGTGTTCTT,0.19
18,ATGTACACGTGGGAGA,-0.1
19,GATAGCACGTGAGGGA,0.33
20,GGATGCACGTGGGTTA,-0.06
21,GGTGGCACGTGTTGGA,0.11
22,TATCTCACGTGGATTT,0.4
23,CTGTACACGTGATGGT,0.15
24,GGTCACACGTGGTATA,0.03
25,TTATGCACGTGGCTGG,-0.18

row,Sequence,relative binding free energy [kcal/mol]
1,TTGGTCACGTGAGCTC,0.33
2,TGTTGCACGTGAGCGA,0.14
3,GTTGGCACGTGATTTT,0.13
4,GAAGGCACGTGGGAGG,-0.26
5,GGGGTCACGTGTAAAA,0.24
6,GACGGCACGTGTGTAT,0.03
7,ATTTGCACGTGCAGGG,-0.02
8,TGATTCACGTGAAGGA,0.42
9,ATAGGCACGTGGTGCT,-0.18
10,GTTATCACGTGTAAAG,0.29
11,TTTTTCACGTGATTGC,0.42
12,GATTGCACGTGTGGAT,0.25
13,ATGGTCACGTGTCGGC,0.1
14,TCGGGCACGTGTTCTG,-0.06
15,CGGGGCACGTGGAGTT,-0.12
16,GGATTCACGTGCTATT,0.24
17,GGATTCACGTGGATGC,0.49
18,TTGAACACGTGTCGGT,0.08
19,GGACGCACGTGGGGGT,-0.22
20,CATTTCACGTGGTAAG,0.21
21,AGGGACACGTGAGTTG,0.37
22,GAGTCCACGTGGGTAT,-0.04
23,CTTTACACGTGTTGGT,0.12
24,CTTGGCACGTGGGTTG,-0.3
25,TGAGACACGTGAAGTG,0.24

row,Sequence,relative binding free energy [kcal/mol]
1,TCAATCACGTGTAGGT,0.07
2,GGGGGCACGTGAGAAC,0.12
3,GATTTCACGTGGGAAT,0.38
4,AGACACACGTGTTGTG,0.03
5,TAATGCACGTGGCGAG,-0.09
6,GAGCGCACGTGTTATG,0.08
7,CAGTTCACGTGGTCGG,0.19
8,AGTTACACGTGCTGAT,0.05
9,TGATGCACGTGCTGGA,0.04
10,TAGCTCACGTGGTTTA,0.15
11,CGAAGCACGTGTTAGG,-0.03
12,AGTTTCACGTGTTAAA,0.11
13,CAGGTCACGTGTTGTT,0.14
14,ATAATCACGTGGTATG,0.12
15,TTGCACACGTGGGGTC,-0.13
16,TGCGTCACGTGGAAAG,0.2
17,AACTGCACGTGTGGTA,0.03
18,CTTTTCACGTGTAATT,0.22
19,GGATGCACGTGAGCGC,0.36
20,ATTGGCACGTGTATCT,0.01
21,TGATTCACGTGGGAAG,0.19
22,GTAGTCACGTGTCGAG,0.32
23,TAAGTCACGTGGGCGT,0.1
24,CATTGCACGTGTATTT,0.02
25,TATGGCACGTGAGGTC,0.18

row,Sequence,relative binding free energy [kcal/mol]
1,GTCAACACGTGAGGGT,0.17
2,TCACGCACGTGTTGTT,-0.03
3,CTGGACACGTGGTGGT,0.01
4,GGTGACACGTGGCGTG,-0.09
5,ATTGTCACGTGGATTC,0.15
6,GTTGTCACGTGTTCGT,0.2
7,TTAAGCACGTGGGGTG,-0.24
8,TCGATCACGTGTCTGT,0.26
9,TCGAGCACGTGGATTG,0.02
10,TGGGGCACGTGTATTA,-0.13
11,GTCAGCACGTGGTTGT,-0.12
12,GCGTGCACGTGATTAG,0.09
13,GGGTACACGTGTATGA,0.18
14,AGGAGCACGTGTTGGT,-0.13
15,CGGTCCACGTGTATGG,-0.01
16,GCGTACACGTGGGGAT,-0.03
17,ACGTGCACGTGGGAGT,-0.18
18,TGTAGCACGTGTGGGC,-0.02
19,AAATTCACGTGAGTGA,0.38
20,ATCGTCACGTGGTTTT,0.13
21,GTTCGCACGTGAAATT,0.49
22,GGTGGCACGTGTGCGT,-0.13
23,TGCGTCACGTGCGTTA,-0.08
24,TGGGTCACGTGTATGG,0.12
25,ATTCGCACGTGAGTGG,0.15

row,Sequence,relative binding free energy [kcal/mol]
1,AATTACACGTGTTGTA,0.07
2,GAGTGCACGTGATGGG,0.29
3,TTGGGCACGTGTTGAA,-0.09
4,TGCTGCACGTGTATAG,-0.01
5,GGTCGCACGTGGCGAG,-0.01
6,AACTGCACGTGTAGGG,0.03
7,CATAACACGTGTGTTG,-0.05
8,GGATACACGTGAGGGG,0.24
9,AGGCTCACGTGTAGAG,0.2
10,AGGTACACGTGGTGTA,-0.07
11,CTTGGCACGTGTAACT,0.15
12,TAATTCACGTGCGAGT,0.27
13,TTGCGCACGTGGTGTG,-0.21
14,TTCCGCACGTGTAGTT,0
15,GGGGACACGTGATGCG,0.12
16,CATTGCACGTGGGGAT,-0.14
17,AGTAGCACGTGGTGCG,-0.23
18,GGGTGCACGTGGGAAA,0.04
19,TACGGCACGTGTGTTG,-0.03
20,GTAAGCACGTGGTCTT,-0.02
21,TGTGTCACGTGCAGAG,0
22,TAGCGCACGTGGGTAA,-0.23
23,TATTTCACGTGAATGC,0.27
24,ATCGGCACGTGTTAGG,-0.07
25,GTATTCACGTGCATGT,0.23

row,Sequence,relative binding free energy [kcal/mol]
1,ATTGACACGTGTAAAG,0.09
2,ATTTTCACGTGGCCTG,0.15
3,TCGTTCACGTGTTCGG,0.28
4,TCAGTCACGTGATCGG,0.27
5,CCTAGCACGTGTGTGG,0.02
6,CGTAACACGTGGGTAG,-0.14
7,TGCGGCACGTGGGTCG,-0.18
8,TTGGACACGTGCAGAT,0.29
9,TGTTTCACGTGGTACA,0.11
10,ACTGGCACGTGTGAGT,-0.05
11,TCGGACACGTGATGTA,0.18
12,TCTTTCACGTGATTGG,0.4
13,GTAAGCACGTGGTAAG,0
14,TTGGCCACGTGGGGTT,-0.11
15,GAGTGCACGTGATGCG,0.05
16,TTGTTCACGTGGTTGT,0.26
17,TCATGCACGTGGGTGT,-0.09
18,AGTTGCACGTGGGTCT,-0.04
19,TTCACCACGTGAGGGT,0.26
20,GATGGCACGTGAAGTT,0.22
21,ACATGCACGTGGTGTA,-0.1
